Where two headings read alike, the source gives them in different places. Some values that stand alone complete this part of the results.
melting point (recrystallized from methanol three times): 289 to 292 °C
melting point (solid slurried in methylene chloride): 268 to 270 °C
SMILES: CC1(N2Cc3c(N)cccc3C2=O)CCC(=O)NC1=O (centres unmarked) [Example 17, 3-(4-Amino-1-oxoisoindolin-2yl)-3-methylpiperidine-2,6-dione]

Reference: patent US8288415B2, “Pharmaceutical compositions of 3-(4-amino-1-oxoisoindolin-2yl)-piperidine-2,6-dione” (Celgene Corporation, priority 1999, dated 2012)
